Source: patent US4432993A, “Method of treating obesity hyperglycemia, inflammation and platelet aggregation” (priority 1980, dated 1984)
At least one read-out could not be matched to a standard name with certainty.

Tests used:
mice = assay: Effect on energy expenditure and food intake of mice; assay type: in vivo, Female CFLP mice; conditions: % of water-dosed mice (control 100), mg/kg po: 1:17, 2:21, 3:21, 4:22.9, 5 (both):8.6, 6:16.4, 7:17.9, 8:18.8, 9:17.9, 10:17.2, 11:22.2, 12:22.1, 13:21.2, 14:22.3, 15:18.1; for MEAN FOOD INTAKE (%): over 21 h
blood glucose = assay: Hypoglycaemic activity (blood glucose after subcutaneous glucose load); assay type: in vivo, Female CFLP mice; conditions: oral, 30 min before glucose 1 g/kg s.c., 2 hour period, vs water control; μmol/kg: 2:2.6, 3:2.6, 4:1, 11:1, 12:1, 13:12.5, 14:12.5, 15:2.5

Structure (SMILES)	MEAN ENERGY EXPENDITURE (%) 0-3 h (mice)	MEAN ENERGY EXPENDITURE (%) 0-21 h (mice)	MEAN FOOD INTAKE (%) (mice)	REDUCTION IN AREA UNDER BLOOD GLUCOSE CURVE (%) (blood glucose)
COC(=O)/C=C/c1ccc(CC(C)NCC(O)c2cc3ccccc3o2)cc1 (centres unmarked) [Example 2, N-[2-(4-[(E)-2-Carbomethoxyethenyl]phenyl)-1-methylethyl]-2-(2-benzofuranyl)-2-hydroxyethanamine]	152%	115%	107%	–
COc1ccc(CC(C)NCC(O)c2cc3ccccc3o2)cc1 (centres unmarked) [Example 15, N-[2-(4-Methoxyphenyl)-1-methylethyl]-2-(2-benzofuranyl)-1-hydroxyethanamine]	128%	110%	105%	27%
Cc1ccc(C[C@H](C)NC[C@@H](O)c2cc3ccccc3o2)cc1 (relative stereo) [Example 5 mp 114-20, N-[2-(4-methylphenyl)-1-methylethyl]-2-(2-benzofuranyl)-2-hydroxyethanamine]	139%	110%	93%	–
CC(Cc1ccc(OCc2ccccc2)cc1)NCC(O)c1cc2ccccc2o1 (centres unmarked) [Example 14, N-[2-(4-Benzyloxyphenyl)-1-methylethyl]-2-(2-benzofuranyl)-2-hydroxyethanamine]	118%	103%	72%	–
Cc1ccc(C[C@@H](C)NC[C@@H](O)c2cc3ccccc3o2)cc1 (relative stereo) [Example 5 mp 102-5, N-[2-(4-methylphenyl)-1-methylethyl]-2-(2-benzofuranyl)-2-hydroxyethanamine]	153%	123%	91%	–
CC(Cc1ccc(OCCO)cc1)NCC(O)c1cc2ccccc2o1 (centres unmarked) [Example 11, N-[2-(4-Hydroxyethoxyphenyl)-1-methylethyl]-2-(2-benzofuranyl)-2-hydroxyethanamine]	143%	108%	92%	–
COC(=O)COc1ccc(CC(C)NCC(O)c2cc3ccccc3o2)cc1 (centres unmarked) [Example 3, N-[2-(4-Carbomethoxymethoxyphenyl)-1-methylethyl]-2-(2-benzofuranyl)-2-hydroxyethanamine]	174%	120%	88%	–
COC(=O)CCCOc1ccc(CC(C)NCC(O)c2cc3ccccc3o2)cc1 (centres unmarked) [Example 4, N-[2-(4-(3-Carbomethoxypropoxy)phenyl)-1-methylethyl]-2-(2-benzofuranyl)-2-hydroxyethanamine]	135%	105%	70%	–
COC(=O)COc1ccc(CC(C)NCC(O)c2cc3ccccc3o2)cc1C (centres unmarked) [Example 12, N-[2-(4-Carbomethoxymethoxy-3-methylphenyl)-1-methylethyl]2-(2-benzofuranyl)-2-hydroxyethanamine]	144%	117%	95%	–
Cc1ccc(CC(C)(C)NCC(O)c2cc3ccccc3o2)cc1 (centres unmarked) [Example 9, N-[2-(4-Methylphenyl)-1,1,dimethylethyl]-2-(2-benzofuranyl)-2-hydroxyethanamine]	117%	109%	102%	–
CC(Cc1ccc(O)cc1)NCC(O)c1cc2ccccc2o1 (centres unmarked) [Example 13, N-[2-(4-Hydroxyphenyl)-1-methylethyl]-2-(2-benzofuranyl)-2-hydroxyethanamine]	137%	106%	91%	45%
Cc1ccc(CC(C)NCC(O)c2cc3ccccc3o2)cc1 (centres unmarked) [Example 1, N-[2-(4-Methylphenyl)-1-methylethyl]-2-(2-benzofuranyl)-2-hydroxy ethanamine]	175%	134%	107%	–
